# According to the supplement of paper PMC10037445:
# The full ranking holds about 2,900 compounds; the median of “IRF Lucia reporter activity, fold change vs agonist alone” is about 0.9, and the highest 2% start at about 2.8. The list shows a part of the results.
# Assays:
# RAW-Dual [1] = test: IRF Lucia reporter activity, fold change vs agonist alone; cytotoxicity flag (confluency mask): not cytotoxic; higher = enhanced IRF activity
# Procedure, shortened: (§1)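 Supernatant from RAW-Dual macrophages was read after 20 hours for IRF by QuantiLuc luminescence and for NF-κB by QuantiBlue absorbance at 620 nm. The cells (50,000 cells/well in DMEM, 384-well plates, 37 °C, 5% CO2) had received 50 nL of library stock by pin tool and, 1 h later, a PRR agonist. Reporter activity is expressed relative to agonist-alone wells as fold change, and wells were flagged cytotoxic if IncuCyte confluency was under 70% of agonist controls in both mask sets.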
# RAW-Dual [2] = test: IRF Lucia reporter activity, fold change vs agonist alone; higher = enhanced IRF activity; conditions: agonist: MPLA (TLR4) […]
# Procedure, shortened: as §1
# RAW-Dual [3] = test: IRF Lucia reporter activity, fold change vs agonist alone; cytotoxicity flag (confluency mask): cytotoxic (confluency <70% of control); higher = enhanced IRF activity
# Procedure, shortened: as §1
# [4] = agonist: 3'3'-cGAMP (STING) 10 ug/mL
# [5] = library stock concentration (final ~1000-fold dilution): 10 mM, cytotoxicity flag (confluency mask): not cytotoxic
smiles,measurement,setting,value
COCCCC/C(=N\OCCN)c1ccc(C(F)(F)F)cc1.O=C(O)/C=C\C(=O)O (library stock concentration (final ~1000-fold dilution): 10 mM),IRF Lucia reporter activity,RAW-Dual [1]; [4],0.702
same,IRF Lucia reporter activity,RAW-Dual [1]; agonist: LPS (TLR4) 0.1 ug/mL,0.877
COCCCC/C(=N\OCCN)c1ccc(C(F)(F)F)cc1.O=C(O)/C=C\C(=O)O,IRF Lucia reporter activity,RAW-Dual [2]; [5],1.43
Nc1nc(-c2ccco2)c2cnn(Cc3ccccc3F)c2n1 (library stock concentration (final ~1000-fold dilution): 10 mM),IRF Lucia reporter activity,RAW-Dual [1]; [4],0.862
same,IRF Lucia reporter activity,RAW-Dual [1]; agonist: LPS (TLR4) 0.1 ug/mL,0.69
Cc1ccc(F)c(NC(=O)Nc2ccc(-c3cccc4[nH]nc(N)c34)cc2)c1,IRF Lucia reporter activity,"RAW-Dual [2]; library stock concentration (final ~1000-fold dilution): 10 mM, cytotoxicity flag (confluency mask): cytotoxic (confluency <70% of control)",0.665
Cc1ccc(F)c(NC(=O)Nc2ccc(-c3cccc4[nH]nc(N)c34)cc2)c1 (library stock concentration (final ~1000-fold dilution): 10 mM),IRF Lucia reporter activity,RAW-Dual [3]; [4],0.114
same,IRF Lucia reporter activity,RAW-Dual [3]; agonist: LPS (TLR4) 0.1 ug/mL,0.671
C=CC(=O)N1CCCC(n2c(=O)n(-c3ccc(Oc4ccccc4)cc3)c3c(N)ncnc32)C1 (stereo not drawn) (library stock concentration (final ~1000-fold dilution): 10 mM),IRF Lucia reporter activity,RAW-Dual [1]; [4],0.831
same,IRF Lucia reporter activity,RAW-Dual [1]; agonist: LPS (TLR4) 0.1 ug/mL,0.761
CC(=O)OC(C)OC(=O)C(C)c1ccc(-c2ccccc2)c(F)c1 (stereo not drawn),IRF Lucia reporter activity,RAW-Dual [2]; [5],1.08
CC(=O)OC(C)OC(=O)C(C)c1ccc(-c2ccccc2)c(F)c1 (stereo not drawn) (library stock concentration (final ~1000-fold dilution): 10 mM),IRF Lucia reporter activity,RAW-Dual [1]; [4],0.981
same,IRF Lucia reporter activity,RAW-Dual [1]; agonist: LPS (TLR4) 0.1 ug/mL,1.03
Cc1ccc(NC(=O)c2cccc(C(C)(C)C#N)c2)cc1Nc1ccc2ncn(C)c(=O)c2c1,IRF Lucia reporter activity,RAW-Dual [2]; [5],0.926
Cc1ccc(NC(=O)c2cccc(C(C)(C)C#N)c2)cc1Nc1ccc2ncn(C)c(=O)c2c1 (library stock concentration (final ~1000-fold dilution): 10 mM),IRF Lucia reporter activity,RAW-Dual [1]; [4],0.559
same,IRF Lucia reporter activity,RAW-Dual [1]; agonist: LPS (TLR4) 0.1 ug/mL,0.808
O=P(O)(O)Oc1cccc2ccccc12,IRF Lucia reporter activity,RAW-Dual [2]; [5],1.11
O=P(O)(O)Oc1cccc2ccccc12 (library stock concentration (final ~1000-fold dilution): 10 mM),IRF Lucia reporter activity,RAW-Dual [1]; [4],1
same,IRF Lucia reporter activity,RAW-Dual [1]; agonist: LPS (TLR4) 0.1 ug/mL,1.33
Cl.Cn1cc(-c2nc(NC3CCCCC3N)c(F)c3c2C(=O)NC3)cn1 (stereo not drawn) (library stock concentration (final ~1000-fold dilution): 10 mM water),IRF Lucia reporter activity,RAW-Dual [1]; [4],0.528
same,IRF Lucia reporter activity,RAW-Dual [1]; agonist: LPS (TLR4) 0.1 ug/mL,0.75
OCCN(CCO)c1nc(N2CCCCC2)c2nc(N(CCO)CCO)nc(N3CCCCC3)c2n1,IRF Lucia reporter activity,RAW-Dual [2]; [5],0.905
OCCN(CCO)c1nc(N2CCCCC2)c2nc(N(CCO)CCO)nc(N3CCCCC3)c2n1 (library stock concentration (final ~1000-fold dilution): 10 mM),IRF Lucia reporter activity,RAW-Dual [1]; [4],0.572
same,IRF Lucia reporter activity,RAW-Dual [1]; agonist: LPS (TLR4) 0.1 ug/mL,0.89
Cn1cnc([N+](=O)[O-])c1Sc1ncnc2nc[nH]c12,IRF Lucia reporter activity,RAW-Dual [2]; [5],0.621
Cn1cnc([N+](=O)[O-])c1Sc1ncnc2nc[nH]c12 (library stock concentration (final ~1000-fold dilution): 10 mM),IRF Lucia reporter activity,RAW-Dual [1]; [4],0.98
same,IRF Lucia reporter activity,RAW-Dual [1]; agonist: LPS (TLR4) 0.1 ug/mL,0.942
NS(=O)(=O)c1ccccc1,IRF Lucia reporter activity,RAW-Dual [2]; [5],1.15
NS(=O)(=O)c1ccccc1 (library stock concentration (final ~1000-fold dilution): 10 mM),IRF Lucia reporter activity,RAW-Dual [1]; [4],0.988
same,IRF Lucia reporter activity,RAW-Dual [1]; agonist: LPS (TLR4) 0.1 ug/mL,1.39
CCC1C(=O)N(C)c2cnc(Nc3ccc(C(=O)NC4CCC(N5CCN(CC6CC6)CC5)CC4)cc3OC)nc2N1C(C)C (stereo not drawn) (library stock concentration (final ~1000-fold dilution): 10 mM),IRF Lucia reporter activity,RAW-Dual [1]; [4],0.981
same,IRF Lucia reporter activity,RAW-Dual [1]; agonist: LPS (TLR4) 0.1 ug/mL,0.123
CCC1C(=O)N(C)c2cnc(Nc3ccc(C(=O)NC4CCC(N5CCN(CC6CC6)CC5)CC4)cc3OC)nc2N1C(C)C (stereo not drawn),IRF Lucia reporter activity,RAW-Dual [2]; [5],1.23
COc1ccc(-n2c(SCCCN3C(=O)c4cccc5cccc(c45)C3=O)nnc2-c2ccncc2)cc1 (library stock concentration (final ~1000-fold dilution): 10 mM),IRF Lucia reporter activity,RAW-Dual [1]; [4],1.09
same,IRF Lucia reporter activity,RAW-Dual [1]; agonist: LPS (TLR4) 0.1 ug/mL,0.9
COc1ccc(-n2c(SCCCN3C(=O)c4cccc5cccc(c45)C3=O)nnc2-c2ccncc2)cc1,IRF Lucia reporter activity,RAW-Dual [2]; [5],1.1
O=C1N[C@@H](Cc2cnc[nH]2)C(=O)N2CCC[C@@H]12 (library stock concentration (final ~1000-fold dilution): 10 mM),IRF Lucia reporter activity,RAW-Dual [1]; [4],0.925
same,IRF Lucia reporter activity,RAW-Dual [1]; agonist: LPS (TLR4) 0.1 ug/mL,0.988
Cc1cccc(CC(=O)N2CCc3c2ccc(-c2cn(C)c4ncnc(N)c24)c3F)n1 (library stock concentration (final ~1000-fold dilution): 10 mM),IRF Lucia reporter activity,RAW-Dual [1]; [4],0.958
same,IRF Lucia reporter activity,RAW-Dual [1]; agonist: LPS (TLR4) 0.1 ug/mL,0.592
Cc1cccc(CC(=O)N2CCc3c2ccc(-c2cn(C)c4ncnc(N)c24)c3F)n1,IRF Lucia reporter activity,RAW-Dual [2]; [5],0.898
Cc1c(-c2cnccn2)ssc1=S (library stock concentration (final ~1000-fold dilution): 10 mM),IRF Lucia reporter activity,RAW-Dual [1]; [4],0.148
same,IRF Lucia reporter activity,RAW-Dual [1]; agonist: LPS (TLR4) 0.1 ug/mL,0.695
C(=C\c1ccccc1)/CN1CCN(C(c2ccccc2)c2ccccc2)CC1 (library stock concentration (final ~1000-fold dilution): 10 mM),IRF Lucia reporter activity,RAW-Dual [1]; [4],1.04
same,IRF Lucia reporter activity,RAW-Dual [1]; agonist: LPS (TLR4) 0.1 ug/mL,1.06
C(=C\c1ccccc1)/CN1CCN(C(c2ccccc2)c2ccccc2)CC1,IRF Lucia reporter activity,RAW-Dual [2]; [5],0.986
CCCNC(=O)C1OC1C(=O)NC(C(=O)N1CCCC1C(=O)OC)C(C)CC (stereo not drawn),IRF Lucia reporter activity,RAW-Dual [2]; [5],1.09
CCCNC(=O)C1OC1C(=O)NC(C(=O)N1CCCC1C(=O)OC)C(C)CC (stereo not drawn) (library stock concentration (final ~1000-fold dilution): 10 mM),IRF Lucia reporter activity,RAW-Dual [1]; [4],0.915
same,IRF Lucia reporter activity,RAW-Dual [1]; agonist: LPS (TLR4) 0.1 ug/mL,1.14
CC(=O)c1c(C)c2cnc(Nc3ccc(N4CCNCC4)cn3)nc2n(C2CCCC2)c1=O.O=S(=O)(O)CCO (library stock concentration (final ~1000-fold dilution): 10 mM water),IRF Lucia reporter activity,RAW-Dual [1]; [4],0.284
same,IRF Lucia reporter activity,RAW-Dual [1]; agonist: LPS (TLR4) 0.1 ug/mL,0.933
CC(=O)c1c(C)c2cnc(Nc3ccc(N4CCNCC4)cn3)nc2n(C2CCCC2)c1=O.O=S(=O)(O)CCO,IRF Lucia reporter activity,"RAW-Dual [2]; library stock concentration (final ~1000-fold dilution): 10 mM water, cytotoxicity flag (confluency mask): not cytotoxic",1.4
CNCCCC12CCC(c3ccccc31)c1ccccc12.Cl (library stock concentration (final ~1000-fold dilution): 10 mM),IRF Lucia reporter activity,RAW-Dual [1]; [4],0.58
same,IRF Lucia reporter activity,RAW-Dual [1]; agonist: LPS (TLR4) 0.1 ug/mL,1.3
CNCCCC12CCC(c3ccccc31)c1ccccc12.Cl,IRF Lucia reporter activity,RAW-Dual [2]; [5],1.61
CS(=O)(=O)O.CS(=O)(=O)O.N=C(N)Nc1ccc(C(=O)Oc2ccc3cc(C(=N)N)ccc3c2)cc1,IRF Lucia reporter activity,RAW-Dual [2]; [5],1.1
CS(=O)(=O)O.CS(=O)(=O)O.N=C(N)Nc1ccc(C(=O)Oc2ccc3cc(C(=N)N)ccc3c2)cc1 (library stock concentration (final ~1000-fold dilution): 10 mM),IRF Lucia reporter activity,RAW-Dual [1]; [4],1.09
same,IRF Lucia reporter activity,RAW-Dual [1]; agonist: LPS (TLR4) 0.1 ug/mL,0.86
